In PubChem BioAssay AID493208 (National Center for Advancing Translational Sciences (NCATS), 2011):
The whole screen tested about 44,000 compounds, of which about 340 (0.77%) were called active. Inconclusive results (about 5%) are left out. The call rests on the fitted dose curve; in most records, active means well fitted inhibition curve with a large enough effect; inconclusive means small, poorly fitted or top-dose-only effect; inactive means flat fitted curve, though single readings scatter. The list shows a part of the results.

experiment: Acumen qHTS Assay for Inhibitors of the mTORC1 Signaling Pathway in MEF (Tsc2-/-, p53-/-) Cells: Sytravon; conditions: phospho-rpS6 immunofluorescence/PI, 24 h; series mostly up to 38.3 µM; activity change, negative = inhibition: at the top concentration;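 further: plate controls were DMSO for no effect and rapamycin for full effect; nearly all actives have a fitted effect of over 50% in size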
Procedure, shortened: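 Immunofluorescence of rpS6 phosphorylation in Tsc2-/-, p53-/- MEFs after 24 h compound exposure, normalized to propidium iodide signal. Activity is expressed as % positive cells, thresholded with 7.5 nM rapamycin.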

| Structure (SMILES) | activity change, negative = inhibition |
| --- | --- |
| COc1ccc(-c2nc3c(c(SCC(=O)N4CCCCC4)n2)Cc2cc(Cl)ccc2O3)cc1 | inactive: 1.67% |
| CN(C)c1ccc(CNC(=O)Cn2c(=O)oc3cc(S(=O)(=O)N4CCCCCC4)ccc32)cc1 | inactive: -7.3% |
| Cc1ccc(-n2ncc(C(=O)N3CCCCC3)c2C2CCN(C(=O)OC(C)(C)C)CC2)c(C)c1 | inactive: 1.09% |
| CCCS(=O)(=O)c1nc(S(=O)(=O)c2ccc(C)cc2)c(NC)s1 | inactive: -7.88% |
| COc1ccc(-n2c(=O)[nH]c3cc(C(=O)NCCc4ccccc4)ccc3c2=O)cc1OC | inactive: 5.51% |
| CCOC(=O)c1c(NC(=O)c2ccc(OC)cc2)sc2c1CCCCC2 | inactive: 2.66% |
| O=C(COc1ccccc1)Nc1ccc2nc(SCC(=O)N3CCOCC3)sc2c1 | inactive: -1.31% |
| O=C(CSc1nnc(-c2ccc(F)cc2)o1)N1CCCc2ccccc21 | inactive: 1.89% |
| Cc1ccc(CSc2nnc3[nH]c(=O)cc(-c4ccccc4)n23)cc1 | inactive: -0.342% |
| COc1cc(OC)c(NS(=O)(=O)c2ccc3oc(=O)c4ncn(C)c4c3c2)cc1Cl | inactive: -20.5% |
| COc1ccc(N2CCN(CCCNC(=O)Nc3ccccc3)CC2)cc1 | inactive: -11.2% |
| COc1ccc(C2C=C(c3ccc(Cl)c(Cl)c3)Nc3ncnn32)cc1 (stereo unspecified) | inactive: 6.52% |
| O=C(CCC1N=C2c3ccccc3N=C(SCc3ccc(Cl)cc3)N2C1=O)N1CCN(c2ccccc2)CC1 (stereo unspecified) | inactive: -3.11% |
| COc1ccc(-n2c(SCC(=O)NCc3ccc(C)cc3)nc3n[nH]c(C)c3c2=N)cc1 | inactive: 6.49% |
| COC(=O)c1sccc1S(=O)(=O)N(CC(=O)NCc1ccc(C)cc1)c1ccc(C)cc1 | inactive: 10% |
| CCn1cc(C(=O)NCc2ccc(Cl)cc2)c(=O)c2cc(S(=O)(=O)N(C)C3CCCCC3)ccc21 | inactive: -15.6% |
| CCOC(=O)C1=C(CN2CCN(c3cccc(Cl)c3)CC2)NC(=O)NC1c1ccc(Cl)cc1 (stereo unspecified) | inactive: -1.72% |
| CC(C)(C)c1ccc(OCc2nnc(-c3ccccc3)o2)cc1 | inactive: -3.64% |
| COc1ccc(NC(=O)CCCn2nc(C)c3sc4ccccc4c3c2=O)cc1 | inactive: 0.241% |
| COc1ccc(S(=O)(=O)NCCSc2nnnn2-c2ccccc2)cc1 | inactive: -3.33% |
| COc1ccc(-c2nc(CSCC(=O)N3CCN(c4ccc(F)cc4)CC3)c(C)o2)cc1 | inactive: -21.9% |
| CCN(Cc1ccccc1)S(=O)(=O)c1ccc(-c2coc(C)n2)cc1 | inactive: -23.7% |
| CC(CNC(=O)c1ccc2nc(Cc3ccccc3)oc2c1)c1ccccc1 (stereo unspecified) | inactive: 3.74% |
| Fc1ccc(C2=CC(c3ccc(F)cc3)n3c(nc4ccccc43)N2)cc1 (stereo unspecified) | inactive: -2.43% |

| Structure (SMILES) | activity change, negative = inhibition |
| --- | --- |
| Cc1cc(-n2c(C)nc3ccccc3c2=O)ccc1NC(=O)C(F)(F)F | inactive: 0.381% |
| O=C(Cn1ncc2c3ccccc3n(Cc3ccc(F)cc3)c2c1=O)NCc1cccs1 | inactive: 1.23% |
| Cc1cccc(Cc2c(C)nc3c(-c4ccccc4)c(C)[nH]n3c2=O)c1 | inactive: 8.7% |
| CC1CCCN(S(=O)(=O)c2ccc3c(c2)CCN3C(=O)CCC(=O)O)C1 (stereo unspecified) | inactive: -14.8% |
| CCC(C)Nc1ncnc2c1cnn2-c1ccc(F)cc1 (stereo unspecified) | inactive: 2.99% |
| COc1ccc(NS(=O)(=O)c2ccc3nc(-c4ccccc4)[nH]c3c2)cc1 | inactive: -6.98% |
| Cc1cc(C(=O)Nc2ccc(-n3c(C)nc4ccccc4c3=O)cc2)ccc1[N+](=O)[O-] | inactive: -8.77% |
| CCc1nonc1NC(=O)c1oc2ccc(Br)cc2c1C | inactive: 0.45% |
| CCc1ccc(-n2c(=O)c3c4c(sc3n(CC(=O)N3CCC(C)CC3)c2=O)CCC4)cc1 | inactive: -1.99% |
| Cc1ccc(NC(=O)C2CCCN(S(=O)(=O)c3cccc4cccnc34)C2)cc1 (stereo unspecified) | inactive: -12.2% |
| Cc1ccc(Cl)cc1NC(=O)c1oc2ccc(S(=O)(=O)N3CCCCC3)cc2c1C | inactive: -9.7% |
| CCOC(=O)c1ccc(NC(=O)CSc2cc(=O)n(CC)c3ccccc23)cc1 | inactive: 0.333% |
| Cc1ccc(Cl)cc1NC(=O)c1oc2ccc(S(=O)(=O)N(C)C3CCCCC3)cc2c1C | inactive: 11.7% |
| Cc1ccc(S(=O)(=O)c2cn(Cc3cccc(C)c3)c3cc4c(cc3c2=O)OCO4)cc1 | inactive: -19.4% |
| CC(=O)CSc1nnc2cc(C)c3cc(C)cc(C)c3n12 | inactive: -1.78% |
| Cc1nn(C(C)C(=O)N2CCN(c3ccc(Cl)cc3)CC2)c(=O)c2cc3occc3n12 (stereo unspecified) | inactive: -6.38% |
| Cc1ccc2c(c1)c(=O)c(C(=O)c1ccc3c(c1)OCO3)cn2Cc1ccc(Cl)cc1 | inactive: 0.685% |
| CCOc1ccc(CN(C(=O)c2cc(=O)c3cc(C)cc(C)c3o2)C2CCS(=O)(=O)C2)cc1 (stereo unspecified) | inactive: 4.51% |
| COc1cc(NC(=O)CCc2c(C)nc3cc(-c4ccccc4)nn3c2C)cc(OC)c1OC | inactive: -8.04% |
| CCC(CC)C(=O)Nc1nnc(SCc2cc(=O)n3cccc(C)c3n2)s1 | inactive: 1.11% |
| CCCN1C(=O)C2(c3ccccc31)c1c(oc3ccc(F)cc3c1=O)C(=O)N2CCCOC(C)C (stereo unspecified) | inactive: -1.56% |
| c1coc(-c2nc3n(n2)C2(CCCCC2)[C@@H]2CCCC[C@@H]2N3)c1 | inactive: -4.21% |
| CN(C(=O)CSc1nnc(-c2ccccc2F)o1)C1CCCCC1 | inactive: -1.92% |
| CCN(C(=O)CSc1nc(-c2ccc(C(C)C)cc2)no1)c1cccc(C)c1 | inactive: -0.783% |

| Structure (SMILES) | activity change, negative = inhibition |
| --- | --- |
| Cc1cccc(C(=O)Nc2nnc(S(=O)(=O)N(C)c3ccccc3C)s2)c1 | inactive: -3.32% |
| Cc1ccc(-n2c(-c3ccco3)nc3c(cnn3-c3ccccc3Cl)c2=O)cc1 | inactive: -16.4% |
| COc1ccc(OC)c(NS(=O)(=O)c2ccc(-c3cc(C)no3)s2)c1 | inactive: -17% |
| COc1ccc(CNC(=O)CCCn2nc(C)c3c(C)n(-c4ccccc4)nc3c2=O)cc1 | inactive: -7.91% |
| COc1ccc(CCNS(=O)(=O)c2cc(-c3cc(C)no3)ccc2C)cc1OC | inactive: -5.38% |
| O=C(Nc1cccc(F)c1)C1CCN(S(=O)(=O)c2cccc3nsnc23)CC1 | inactive: -8.11% |
| CCn1cc2nc(SCc3cccc(Cl)c3)n(Cc3ccc(C)cc3)c(=O)c2n1 | inactive: 3.81% |
| CC(C)c1cnc2c(c1SCC(=O)Nc1cccc(F)c1)c(=O)n(C)c(=O)n2C | inactive: 10% |
| Cc1ccc(Cl)cc1Nc1nn2c(=O)c3ccc(C(=O)N4CCCC(C)C4)cc3nc2s1 (stereo unspecified) | inactive: -0.349% |
| CN(C)c1ccc(CNC(=O)CCn2cccn2)cc1 | inactive: -11.9% |
| CCc1ccc(CN2CCc3nc(N4CCN(CC)CC4)ncc3C2)cc1 | inactive: 0% |
| c1ccc(CSc2nc3ncccc3[nH]2)cc1 | inactive: 1.21% |
| O=C(Nc1cccc(C(F)(F)F)c1)C1CCCN1S(=O)(=O)c1cccc2nsnc12 (stereo unspecified) | inactive: -5.59% |
| Cc1cc(C)cc(OC(C)C(=O)Nc2c(C(=O)c3ccccc3)oc3ccccc23)c1 (stereo unspecified) | inactive: 3.17% |
| CSc1ccc(C2c3c(oc4cc(C)cc(C)c4c3=O)C(=O)N2Cc2ccco2)cc1 (stereo unspecified) | inactive: -1.07% |
| CCCN(CCC)S(=O)(=O)c1ccc(C(=O)Nc2sc3c(c2C(=O)OC)CCN(CC)C3)cc1 | inactive: -27% |
| Cc1ccc(S(=O)(=O)N2CCC(C(=O)Nc3ccc(C)c(Cl)c3)CC2)cc1 | inactive: -8.27% |
| CCOC(=O)c1c(C)[nH]c(C)c1S(=O)(=O)N1CCN(c2cccc(C(F)(F)F)c2)CC1 | inactive: -2.6% |
| CCN(CC)C(=O)Cn1c(=O)n(-c2ccc(Cl)cc2)c(=O)c2c3c(sc21)CCC3 | inactive: -10.5% |
| COc1ccc(CCNC(=O)C(=O)NCC(c2cccs2)S(=O)(=O)c2ccc(C)cc2)cc1 (stereo unspecified) | inactive: -9.18% |
| O=C1c2[nH]nc(-c3ccccc3O)c2C(c2cccc(OCc3ccccc3)c2)N1CCO (stereo unspecified) | inactive: 1.93% |
| COc1ccc(C(=O)COC(=O)C(Cc2c[nH]c3ccccc23)NC(=O)c2ccc(C(C)(C)C)cc2)cc1 (stereo unspecified) | inactive: -6.1% |
| COc1ccc(-n2nc(C)c3c(C(F)(F)F)cc(-c4cccnc4)nc32)cc1 | inactive: -8.57% |
| Cc1cn2c(=O)cc(COC(=O)c3cccc(NC(=O)c4ccccc4C)c3)nc2s1 | inactive: 4.06% |

| Structure (SMILES) | activity change, negative = inhibition |
| --- | --- |
| CCOC(=O)c1cc(OC(=O)c2ccccc2C)n(-c2ccccc2)n1 | inactive: -1.42% |
| COc1cccc(N2CCN(C(=O)CCS(=O)(=O)c3ccc4c(c3)oc(=O)n4C)CC2)c1 | inactive: -7.07% |
| COCCCNC(=O)C1CCN(c2nc3ccc(C)cc3[nH]2)CC1 | inactive: -0.217% |
| COc1cc(OC)cc(-c2cc3nc(C)c(CCC(=O)NCc4ccc(Cl)cc4)c(C)n3n2)c1 | inactive: -3.49% |
| Cc1cccc(N2CCN(C(=O)Cn3ncc4c5ccccc5n(C)c4c3=O)CC2)c1C | inactive: -11.1% |
| COc1ccc(C(=O)Nc2ccc(-n3nncc3-c3ccccc3)cc2)cc1OC | inactive: -9.09% |
| Cc1cc2oc(=O)cc(C)c2c2occ(-c3ccc(Cl)cc3)c12 | inactive: 4.4% |
| Cc1ccc2[nH]c3c(=O)n(CC(=O)N4CCCCC4)ncc3c2c1 | inactive: 5.72% |
| Cc1ccc(C)n1-c1nnc(N2CCCC(C(=O)NCc3cccc(F)c3)C2)s1 (stereo unspecified) | inactive: -9.62% |
| COc1ccc(OC)c(CNC(=O)C2CCN(c3nc4ccccc4nc3C(F)(F)F)CC2)c1 | inactive: 3.17% |
| CCc1ccc(S(=O)(=O)c2cn(Cc3ccccc3)c3cc(F)c(F)cc3c2=O)cc1 | inactive: 9.48% |
| CCc1ccccc1Nc1nc2ccccc2c2nncn12 | inactive: -4.97% |
| Cc1ccc(-n2nc(CO)c(C(=O)NCc3cccnc3)n2)cc1 | inactive: 3.16% |
| Cc1ccc(OCC(=O)Nc2ccc3nc(SCC(=O)N4CCOCC4)sc3c2)cc1 | inactive: -9.31% |
| COc1ccccc1NC(=O)CSc1ncc2c(n1)-c1cc(Cl)ccc1N(Cc1ccccc1)S2(=O)=O | inactive: -3.45% |
| CCCCc1c(C)nc2c(-c3ccc(OC)cc3)c(C)[nH]n2c1=O | inactive: -5.37% |
| Cn1c(CN2CCCCC2)nc2cc(NC(=O)c3ccccc3Cl)ccc21 | inactive: -27.6% |
| CCCCNC(=O)CCCn1c(=O)c2ccccc2n(Cc2cccc(Cl)c2)c1=O | inactive: -1.71% |
| CCC(=O)N1CCc2cc(Br)cc(S(=O)(=O)CCC(=O)N3CCN(c4ccccc4F)CC3)c21 | inactive: 3.21% |
| O=C(NC1CCCC1)c1cc(Nc2cccc(C(F)(F)F)c2)nc2ccccc12 | inactive: -10.1% |
| O=C(C1CCN(S(=O)(=O)Cc2ccccc2)CC1)N1CCN(c2ccccc2)CC1 | inactive: 2.89% |
| Cc1nc2c(c(C)c1CCC(=O)NCc1ccccc1)c(=O)n(C)c(=O)n2C | inactive: -0.679% |
| COCCCNC(=O)CSc1nc2c(sc3ccccc32)c(=O)n1CCc1ccccc1 | inactive: 1.77% |
| COc1cc(NC(=O)CSc2nc3ccccc3nc2Cc2ccc(Cl)cc2)cc(OC)c1 | inactive: 0% |
